Where “and” joins values, the source holds several entries; their conditions need not be identical. Identical values can stand only once. The campaign covered roughly 420,000 compounds. About 64,000 (15%) were called active. The shares of active, inactive and inconclusive entries below differ from those in the screen. Calls follow the shape of the dose curve; as a rule, active = well fitted inhibition curve with a large enough effect; inconclusive = small, poorly fitted or top-dose-only effect; inactive = flat fitted curve, though single readings scatter. A potency beside an inconclusive call is a rough fit, not a confirmed value.
Assay: qHTS for Inhibitors of human tyrosyl-DNA phosphodiesterase 1 (TDP1): qHTS in cells in absence of CPT; also: nearly all actives have a fitted effect of over 55% in size
Settings: DT40 Tdp1-/- hTDP1 cells, no CPT, ATP luminescence, 48 h; activity change, negative = growth inhibition: at 46.2 µM (top of the series) unless noted
Method in brief: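 Camptothecin absent (DMSO only). Human TDP1-complemented DT40 knockout cells, 400 cells/well, 37 °C for minimum 48 hr; ATP measured via CellTiter-Glo, 30 min dark incubation, luminescence.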
% is scaled to controls: 0 for no effect and ±100 for the full control effect; potency is read from the fitted curve at half-maximal effect; tags tell the direction and shape of the fitted curve.

Row | SMILES | Potency | activity change, negative = growth inhibition
1 | COc1ccc(CCNC(=O)C(=O)NCC2OCCN2C(=O)c2ccc(Cl)cc2)cc1OC (stereo not given) | inactive | –
2 | COc1ccc(NC(=O)c2ccco2)c(NC(=O)c2ccc([N+](=O)[O-])cc2)c1 | inactive | –
3 | Cc1sc2ncnc(N3CCN(CCOc4ccc(Cl)cc4)CC3)c2c1C | active: 2.51 µM | –
4 | Cc1cccc(N2CCN(Cc3cc(=O)n4ccsc4n3)CC2)c1C | inconclusive: 32.6 µM [inhibitor, single point] | –
5 | Cc1c(Cl)cccc1NC(=O)c1oc2ccc(S(=O)(=O)N3CCCCCC3)cc2c1C | active: 8.2 µM | –
6 | CC1(C)CCC[C@]2(C)[C@H]3CC(=O)O[C@]3(C)CC[C@@H]12 | inactive | –
7 | CN(C)S(=O)(=O)Oc1ccccc1C(=O)Nc1ccccc1Cl | inconclusive: 29.1 µM [inhibitor, single point] | –
8 | CC(=O)c1sc(Nc2nc3cc4c(cc3s2)OCO4)nc1C | inconclusive: 14.6 µM [inhibitor, single point] | –
9 | CCc1ccccc1-n1nnc(-c2ccccc2)n1 | inactive | –
10 | O=C(CCc1ccc(CCC(=O)c2cccs2)s1)c1cccs1 | inactive | –
11 | CCOC(=O)c1ccc(OS(=O)(=O)c2ccccc2)c(OC)c1 | inconclusive: 25.9 µM [inhibitor, partial curve] | –
12 | COc1ccc(NCc2nnc(-c3ccccc3)o2)cc1 | inactive | –
13 | Cc1cccc(NC(=S)NN(Cc2ccccc2)c2ccccc2)c1C | active: 15.8 µM | –
14 | Cc1ccc(C)c(NC(=O)CN(C)C(=O)c2ccc3c(=O)n4c(nc3c2)CCC4)c1 | inactive | –
15 | O=C(Nc1cccc(F)c1)c1ccc2oc(=O)n(Cc3ccccc3)c2c1 | inconclusive: 29.1 µM [inhibitor, single point] | –
16 | COc1cccc(OC)c1C(=O)Nc1ccc(-c2nc3ncccc3o2)cc1 | inconclusive: 8.2 µM [inhibitor, partial curve] | –
17 | N#CC1=C(N)Oc2cc(O)ccc2C1C1CCCCC1 (stereo not given) | inconclusive: 20.6 µM [inhibitor, single point] | –
18 | Cc1ccc(S(=O)(=O)N2CCCCC2)cc1NC(=O)COC(=O)C1CC1 | inconclusive: 29.1 µM [inhibitor, single point] | –
19 | Cc1ccc(-c2cc(C(=O)NCc3ccco3)c3ccccc3n2)s1 | inconclusive: 25.9 µM [inhibitor, single point] | –
20 | Cc1ncc(N=Nc2ccccc2Cl)c(-c2ccccc2)n1 | – | inconclusive: -32.3% [inhibitor]
21 | CCOC(=O)c1cc2c(=O)n3ccccc3nc2n(Cc2ccco2)c1=NC(=O)c1ccc(C(C)(C)C)cc1 | inactive | –
22 | CO[C@@H]1CN(C)C(=O)c2cc(NC(=O)Nc3cc(F)ccc3F)ccc2OC[C@H](C)N(C(=O)c2cnccn2)C[C@@H]1C | inconclusive: 29.1 µM [inhibitor, single point] | –
23 | COc1ccc(C2=NOC(C(=O)NCc3ccccn3)C2)cc1 (stereo not given) | inactive | –

Row | SMILES | Potency | activity change, negative = growth inhibition
24 | O=C(Nc1ccccc1)c1cnc(-c2ccccc2)nc1-c1ccccc1 | inactive | –
25 | CN(CCO)c1ccc2c(c1)OC[C@@H](Cc1ccccc1)NS2(=O)=O | inactive | –
26 | Cc1ccc(C)c(N2CCN(C(=O)CCc3nnc4n(C)c(=O)c5ccccc5n34)CC2)c1 | inconclusive: 7.31 µM [inhibitor, partial curve] | –
27 | COc1ccc(S(=O)(=O)Nc2ccccc2C(=O)N2CCOCC2)cc1Cl | inactive | –
28 | O=[N+]([O-])c1ccccc1N(S(=O)(=O)c1ccccc1)S(=O)(=O)c1ccccc1 | inconclusive: 23.1 µM [inhibitor, single point] | –
29 | COCCn1nnnc1C(c1ccccn1)N1CCN(c2cc(Cl)ccc2C)CC1 (stereo not given) | inconclusive: 29.1 µM [inhibitor, single point] | –
30 | CCn1c(=O)c(C(=O)Nc2ncccc2O)c(O)c2ccccc21 | inactive | –
31 | COc1ccccc1NC(=O)COC(=O)c1ccc2c(c1)nc(C)n2-c1ccccc1 | – | inconclusive: -31.5% [inhibitor]
32 | Cc1ccc2nc(-c3ccc(Cl)cc3)c(Cc3cccc(Cl)c3)n2c1 | inconclusive: 29.1 µM [inhibitor, single point] | –
33 | CCCS(=O)(=O)c1nc(S(=O)(=O)c2ccc(C)cc2)c(N2CC(C)OC(C)C2)s1 (stereo not given) | inconclusive: 29.1 µM [inhibitor, single point] | –
34 | NC(=O)c1nc(Nc2ccccc2)sc1NC(=O)c1c(F)cccc1F | inconclusive: 6.51 µM [inhibitor, partial curve] | –
35 | COc1ccc(NS(=O)(=O)c2cccc(C(=O)OCC(=O)Nc3cc(C)on3)c2)cc1 | inactive | –
36 | Cc1nn(CCO)c2nc(-c3cccs3)cc(C(F)(F)F)c12 | inconclusive: 29.1 µM [inhibitor, single point] | –
37 | CCc1ccc(NC(=O)CNC(=O)c2cn(-c3ccccc3OC)c(=O)c3ccccc23)cc1 | inactive | –
38 | N#CC1=C(N)NC(SCC(=O)c2ccc(Br)cc2)=C(C#N)C12CCCCC2 | inconclusive: 20.6 µM [inhibitor, single point] | –
39 | CC(C)NC(=O)N(C)C[C@@H]1Oc2cc(Br)ccc2S(=O)(=O)N([C@@H](C)CO)C[C@H]1C | inactive | –
40 | O=C1CCN=C(Nc2ccc(F)cc2)N1Cc1ccccc1 | inconclusive: 23.1 µM [inhibitor, single point] | –
41 | COc1ccc(C(=O)OCC(=O)N2CCN(S(=O)(=O)c3ccc(C)cc3)CC2)cc1[N+](=O)[O-] | inconclusive: 18.4 µM [inhibitor, single point] | –
42 | O=C(/C=C/c1ccc(S(=O)(=O)N2CCOCC2)cc1)NCc1ccc(Cl)cc1 | active: 18.4 µM | –
43 | CCOC(=O)c1cccnc1SCC(=O)N(CC)c1cccc(C)c1 | inconclusive: 29.1 µM [inhibitor, single point] and inconclusive: 18.4 µM [inhibitor, single point] | –
44 | COc1ccc(OC)c(NC(=O)C(=O)c2cn(CC(=O)N3CCCC3)c3ccccc23)c1 | inconclusive: 23.1 µM [inhibitor, single point] | –
45 | Cc1cccc(CCNC(=O)c2oc3c(C)c(C)ccc3c2C)n1 | inconclusive: 20.6 µM [inhibitor, single point] | –

From PubChem BioAssay AID686978 (National Center for Advancing Translational Sciences (NCATS), 2013)
